From the supplement of paper PMC3334620
In all, about 33,000 sequences were measured (“E-score (-0.5 to 0.5)”: median about -0.053, highest 2% from about 0.37 on). The list shows a part of the results.

Target: Hap1 (UniProt P0CE41)
Experiment: PBM E-score (8-mer binding enrichment) (E-score (-0.5 to 0.5)); higher = stronger / more preferred TF binding; most listed sequences are background and not binding sites
Settings: protein concentration: 200 nM; construct: GST-DNA-binding domain
In short: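 Yeast transcription factors carrying a GST tag, as full-length proteins or DNA-binding domains, were produced by PURExpress in vitro transcription/translation. About 100-200 nM protein was applied to universal all-10-mer Agilent arrays, double-stranded by primer extension on fresh or once-stripped slides. Bound protein was detected with fluorescent anti-GST, and scans were normalised with masliner. The Universal PBM Analysis Suite gave each ungapped eight-base word, pooled with its reverse complement, an E-score, a modified Wilcoxon-Mann-Whitney statistic.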

UniProt P0CE41, sequence (P0CE41 whole entry): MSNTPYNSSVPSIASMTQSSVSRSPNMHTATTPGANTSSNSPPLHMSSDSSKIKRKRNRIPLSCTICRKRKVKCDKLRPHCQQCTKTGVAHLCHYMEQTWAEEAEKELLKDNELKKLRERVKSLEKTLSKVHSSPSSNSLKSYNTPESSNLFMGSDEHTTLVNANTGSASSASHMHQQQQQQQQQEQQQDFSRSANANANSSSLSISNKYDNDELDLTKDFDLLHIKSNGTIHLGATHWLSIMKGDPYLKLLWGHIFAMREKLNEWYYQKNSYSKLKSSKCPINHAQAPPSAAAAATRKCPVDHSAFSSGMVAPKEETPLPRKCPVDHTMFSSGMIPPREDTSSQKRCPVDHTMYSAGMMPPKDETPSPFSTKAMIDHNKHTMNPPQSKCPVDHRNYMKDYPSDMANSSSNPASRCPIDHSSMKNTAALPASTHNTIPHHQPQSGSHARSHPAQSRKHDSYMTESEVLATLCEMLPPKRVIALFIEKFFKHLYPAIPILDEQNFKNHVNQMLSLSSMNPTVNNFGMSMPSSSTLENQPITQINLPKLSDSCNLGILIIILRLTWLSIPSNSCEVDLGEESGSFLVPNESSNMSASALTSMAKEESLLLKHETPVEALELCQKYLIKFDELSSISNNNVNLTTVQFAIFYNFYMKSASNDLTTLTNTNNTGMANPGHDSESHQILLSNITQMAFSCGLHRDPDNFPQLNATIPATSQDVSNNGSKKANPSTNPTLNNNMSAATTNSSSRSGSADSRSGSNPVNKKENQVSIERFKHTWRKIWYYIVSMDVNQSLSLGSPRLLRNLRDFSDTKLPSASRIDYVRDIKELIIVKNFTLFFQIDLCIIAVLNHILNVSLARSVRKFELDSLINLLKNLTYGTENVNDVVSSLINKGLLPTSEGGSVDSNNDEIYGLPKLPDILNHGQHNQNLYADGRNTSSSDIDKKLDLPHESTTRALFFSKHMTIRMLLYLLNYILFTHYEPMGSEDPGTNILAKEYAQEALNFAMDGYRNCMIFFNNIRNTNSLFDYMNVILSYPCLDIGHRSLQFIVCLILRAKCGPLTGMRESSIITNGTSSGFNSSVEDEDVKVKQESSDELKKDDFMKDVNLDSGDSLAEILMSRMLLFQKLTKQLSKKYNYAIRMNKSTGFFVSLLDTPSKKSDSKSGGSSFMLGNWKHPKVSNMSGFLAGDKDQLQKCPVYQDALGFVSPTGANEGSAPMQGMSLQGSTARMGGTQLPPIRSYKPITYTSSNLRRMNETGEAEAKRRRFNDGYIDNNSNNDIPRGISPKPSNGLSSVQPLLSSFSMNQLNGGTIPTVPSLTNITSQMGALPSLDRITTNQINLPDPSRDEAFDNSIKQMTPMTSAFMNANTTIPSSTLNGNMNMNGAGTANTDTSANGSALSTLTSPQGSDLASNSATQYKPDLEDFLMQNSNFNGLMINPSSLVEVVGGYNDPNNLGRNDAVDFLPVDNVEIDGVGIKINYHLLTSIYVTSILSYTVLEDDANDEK

Sequence | PBM E-score
AGTTATAC | 0.061
CCTCAGCC | -0.0983
GGTCAACC | 0.00435
GAGAGCAA | -0.131
AGCTTTAA | -0.0888
GAATCGTA | -0.0869
AGATTACA | 0.0437
GCTAAACC | 0.0775
ATTGGACC | 0.161
CTCACCAA | -0.0619
ACGTGCGA | -0.0628
ATGGAATC | -0.00395
CAGCACCC | -0.155
GCTGGCAC | -0.221
ATTTGTCC | 0.228
ATCAAGAG | -0.172
GCCCTAAC | 0.117
AAGGACTG | -0.275
GTTCCCGA | 0.257
CTCATGGC | 0.0536
TAGCTATA | -0.146
AACCGCAA | 0.199

Sequence | PBM E-score
GTCTCTAA | -0.157
CCAAAGCC | 0.0357
CCGTCTAG | 0.101
ACACAGTC | 0.0224
CTGATGCC | 0.0435
CTTTCTCC | 0.165
CTAATCAC | 0.209
ACTACATA | -0.249
ATGTATAC | 0.00845
CATTGATC | -0.0242
GAACTTTA | 0.0817
CGGGCCTA | 0.383
GACGAGCC | -0.211
CGGCCACA | 0.235
GCATGCTA | -0.134
ACGACCCA | -0.136
GTATACGA | -0.0696
AATGAACA | -0.111
CAAAAGGC | -0.065
TTAAACAA | -0.0739
CATCCGGG | 0.278
CATTTTCC | 0.0275

Sequence | PBM E-score
GGCACGCC | -0.0738
ATCCCGCC | 0.162
ACCACAGG | -0.164
GGCTATAA | 0.13
AGATAGAT | -0.296
ATCCTTAG | -0.165
ATCTCACG | 0.0714
AACCTCAT | -0.141
GCAACAGA | -0.0259
ATGAATGG | 0.0779
CGCAATTC | 0.111
ACGCGTAA | -0.0172
AGGCTCAA | -0.18
ACCCGGAT | 0.322
CGGACCAG | 0.304
ACACGGCG | 0.119
CAAAGCGC | 0.139
TCGCACCA | -0.0261
GAGATTAC | 0.126
CGCACGGA | 0.336
CGGTCGCC | 0.22
CTACACCC | 0.0196

Sequence | PBM E-score
GCGGCCAC | 0.0835
CGGTATCC | 0.269
ACCACACT | -0.0326
TTACCCAA | -0.225
CTGAGGGC | -0.243
ATAAATAT | 0.174
TAGCTTGA | -0.226
TAGTGCGA | -0.185
CCCTCGCG | 0.138
GACGAAGA | -0.0559
ATAATTGA | -0.0207
ATCCCTCC | 0.0388
CGTGTAAC | -0.0381
AGTGAGAA | -0.0436
GCTCGCTA | -0.00683
AGTACCAT | -0.18
ATAGGAGG | -0.0287
TGGAATAA | -0.128
ATTATGCC | 0.154
AGCTACCC | -0.159
CAGACATG | -0.204
CGACCGTC | -0.0224

Sequence | PBM E-score
ACAACCGA | 0.296
AATTCACT | -0.162
AGCGCGCG | 0.14
AAACCTCG | 0.1
ACAGTCCT | -0.306
ATTGAAGA | -0.255
ATCCTCAC | -0.103
CTGATAAC | -0.0581
ATCTAAAA | -0.105
AATTTTTC | 0.0506
CGCACTCC | -0.128
ACCCGAAT | 0.314
ACTGACTG | -0.282
TAATACTA | -0.0683
AACGGACA | 0.369
CCTAATGC | -0.232
ACGGAGCC | 0.254
AGGCGTAC | -0.113
GACTTAGC | 0.0908
ACTTGTAG | -0.161
ACCTCGGC | 0.377
ACAGTGCC | 0.106
